In PubChem BioAssay AID1476 (National Center for Advancing Translational Sciences (NCATS), 2009):
In all, about 200,000 compounds went through this assay and about 4,500 (2.2%) were called active. Inconclusive means that the source gave no clear call. Such entries were picked first, then a sample of the others. Calls follow the shape of the dose curve; as a rule, active = well fitted inhibition curve with a large enough effect; inconclusive = small, poorly fitted or top-dose-only effect, or effect the other way; inactive = flat fitted curve, though single readings scatter. A potency beside an inconclusive call is a rough fit, not a confirmed value.

Biological target: Cruzipain (Trypanosoma cruzi) (UniProt P25779)
Chain of UniProt P25779 (P25779 whole entry, looked up): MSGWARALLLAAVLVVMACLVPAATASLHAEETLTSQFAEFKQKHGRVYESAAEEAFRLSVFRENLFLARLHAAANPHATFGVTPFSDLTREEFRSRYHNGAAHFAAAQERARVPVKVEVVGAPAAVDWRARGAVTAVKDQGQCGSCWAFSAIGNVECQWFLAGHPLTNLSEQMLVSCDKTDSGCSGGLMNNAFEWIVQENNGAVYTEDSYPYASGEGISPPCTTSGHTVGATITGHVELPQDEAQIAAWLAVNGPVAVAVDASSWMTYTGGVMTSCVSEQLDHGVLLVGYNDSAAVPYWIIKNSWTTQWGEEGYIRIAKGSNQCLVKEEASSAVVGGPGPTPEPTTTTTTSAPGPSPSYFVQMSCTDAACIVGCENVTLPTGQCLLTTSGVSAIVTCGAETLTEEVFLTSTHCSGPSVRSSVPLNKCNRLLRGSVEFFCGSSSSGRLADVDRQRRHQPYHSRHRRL
Assay: qHTS Assay for Promiscuous and Specific Inhibitors of Cruzain (without detergent); also: nearly all actives have a fitted effect of over 40% in size
Conditions: purified cruzain, Z-FR-AMC fluorescence, no detergent
Experimental: Cruzain is a cysteine protease from the tropical parasite Trypanosoma cruzi. Dual qHTS experiment was performed against the NCGC compound collection in order to 1) identify novel inhibitors of the enzyme and 2) profile the compound collection for promiscuous inhibitors operating via colloidal aggregation (by performing detergent-free and detergent-containing comparison screens). Cruzain was assayed by the use of fluorogenic coumarin-based substrate Z-FR-AMC: proteolytic cleavage releases AMC, whose fluorescence is measured at 360 nm excitation and 450 nm emission. Purified cruzain was supplied by the labs of Prof. James McKerrow and Brian Shoichet, UC San Francisco.
This assay had 0.00005% Triton X-100 concentration. See also releated assay "qHTS Assay for Promiscuous and Specific Inhibitors of Cruzain (with detergent)" with 0.01% Triton X-100.
See following references for additional details:
Assay Provider: Shoichet, Brian; University of California, San Fancisco
Screening Center PI: Austin, C.P.
Screening Center: NIH Chemical Genomics Center [NCGC]
Buffer: 100 mM Sodium Acetate, pH 5.5, 5 mM DTT, Triton X-100 concentration: 0.01%.
Buffer in columns 3 and 4 as negative control (no enzyme).
Substrate solution: 2 uM final concentration of Z-FR-AMC (catalog number I-1160, Bachem) dispensed throughout the plate.
Enzyme: 1.5 nM Cruzain final concentration in columns 1, 2, 5-48. Column 1 is neutral (100% activity). Column 2 contained titration of covalent inhibitor K11777, starting concentration 1 mM, then 1:2 dilution in duplicate).
Three uL of enzyme or buffer were dispensed to 1536-well Greiner black solid bottom plates. Compounds and controls (23 nL) were transferred via Kalypsys PinTool. The plates were incubated for 15 min at room temperature, and then 1 uL of substrate solution was added to start the reaction. The plates were immediately transferred to and read 4 times every 30 seconds for 2 min on ViewLux High-throughput CCD imager (Perkin-Elmer) using 360 nm excitation and 450 nm emission fluorescence protocol. The fluorescence intensity difference between the third and the first time points (time lapse of 60 seconds) was used to compute reaction progress.
Potency is read from the fitted curve at half-maximal effect; tags tell the direction and shape of the fitted curve.

| SMILES | max response, negative = inhibition | Potency |
| --- | --- | --- |
| COc1ccc(N2CCN(C(=O)c3ccc4nc(N5CCC(C)CC5)sc4c3)CC2)cc1 | inactive: 13.2% |  |
| COc1ccc(NC(=O)N2CCc3c([nH]c4ccc(OC)cc34)C2c2ccc(OC)cc2)cc1 (configuration not stated) |  | inconclusive: 15.8 µM [inhibitor, partial curve] |
| COc1cc(OC)c2c(C)cc(=O)oc2c1 |  | inconclusive: 39.8 µM [activator, single point] |
| O=C(Oc1cccc(NC(=O)c2ccccc2Cl)c1)c1ccc([N+](=O)[O-])cc1 |  | inconclusive: 25.1 µM [inhibitor, single point] |
| O=C(O)CCCc1ccc2ccc3ccccc3c2c1 | inactive: 3.88% |  |
| Cc1cc(C)nc(N2CCC(C(=O)Nc3nnc(C)s3)CC2)n1 | inactive: 0.111% |  |
| COc1cc(Cl)c(C)cc1NC(=O)COC(=O)C(NS(=O)(=O)c1ccc(Cl)cc1)C(C)O (configuration not stated) |  | inconclusive: 39.8 µM [activator, single point] |
| O=C(Nc1nnc(-c2ccc3c(c2)OCCO3)o1)c1ccc(Cc2ccccc2)cc1 |  | active: 12.6 µM |
| COc1ccc(C2C=C(c3ccc(Br)cc3)Nc3nc(N4C(=O)CCC4=O)nn32)cc1 (configuration not stated) |  | inconclusive: 39.8 µM [activator, single point] |
| CN(C)c1nc(OCCNC(=O)COc2ccc(Cl)cc2Cl)nc(N(C)C)n1 |  | inconclusive: 31.6 µM [activator, partial curve] |
| O=C(CSc1nc(-c2ccccc2)c(-c2ccccc2)o1)N1CCOCC1 |  | inconclusive: 31.6 µM [activator, single point] |
| Cc1cc(C)nc(N/C(=N\S(=O)(=O)Cc2ccccc2)Nc2ccc(F)c(Cl)c2)n1 |  | inconclusive: 39.8 µM [activator, single point] |
| CCOCCCNC(=O)c1c[nH]c2ccc(S(=O)(=O)Nc3cccc(Cl)c3C)cc2c1=O | inactive: 22.4% |  |
| Cc1ccc(S(=O)(=O)/C(=C/Cl)NC(=O)c2ccccc2)cc1 |  | active: 25.1 µM |
| O=c1c2ccccc2nc(SCc2nc3ccccc3s2)n1CCCO |  | inconclusive: 39.8 µM [activator, single point] |
| Cc1c(NC(=O)c2ccccc2)cc(C(C)C)c(O)c1S(=O)(=O)c1ccc(Cl)cc1 |  | inconclusive: 39.8 µM [inhibitor, single point] |
| COc1cc(NC(=O)c2cccnc2Sc2ccc(Cl)cc2)cc(OC)c1OC | inactive: -5.62% |  |
| COc1ccccc1C(=O)NCC1(N2CCN(C)CC2)CCCCC1 | inactive: -0.697% |  |
| COc1cccc(Cn2c(=O)c(-c3ccc(Cl)cc3)nc3cncnc32)c1 | inactive: -16.6% |  |
| COc1ccc(NC(=O)c2ccccc2NS(=O)(=O)c2ccc(C)cc2)c([N+](=O)[O-])c1 |  | inconclusive: 39.8 µM [inhibitor, single point] |
| Nc1sccc1C(=O)c1ccccc1 |  | inconclusive: 20 µM [inhibitor, partial curve, poor fit] |

| SMILES | max response, negative = inhibition | Potency |
| --- | --- | --- |
| CC1=Nc2cc(C(=O)NC3CCCC3)ccc2Sc2ccc(Br)cc21 |  | inconclusive: 12.6 µM [inhibitor, partial curve] |
| O=C(Nc1ccc(CN2CCOCC2)cc1)c1ccc(-c2cc(Cl)ccc2Cl)o1 |  | active: 25.1 µM |
| COc1ccc(OC)c(NC(=O)c2c(NCc3ccc(C)o3)sc3c2CCC(C)C3)c1 (configuration not stated) | inactive: -14.3% |  |
| CC(=O)c1cccc(S(=O)(=O)NCCc2csc3nc(-c4ccc(F)cc4)nn23)c1 | inactive: 5.19% |  |
| CC(=O)NCCNc1ccnc(-c2ccccc2C)n1 | inactive: 6.87% |  |
| COc1ccc(C(CC(=O)Nc2ccc(C)c(C)c2)N2Cc3ccccc3C2=O)cc1OC (configuration not stated) |  | inconclusive: 39.8 µM [activator, single point] |
| CC1(C)N=C(N)NC(Nc2ccc(Br)cc2)=N1 |  | active: 20 µM |
| COc1ccccc1C(=O)NCC1CCN(c2ccc(S(=O)(=O)N3CCOCC3)cc2)CC1 |  | inconclusive: 39.8 µM [activator, single point] |
| CCN(Cc1ccccc1)C(=O)Cn1c(=O)n(Cc2ccccc2)c(=O)c2c1c1cc(OC)ccc1n2C | inactive: -8.71% |  |
| COC(=O)Cc1[nH]nc2c1C1(C(=O)N(Cc3ccc(Cl)cc3)c3ccccc31)C(C#N)=C(N)O2 (configuration not stated) |  | inconclusive: 39.8 µM [activator, single point] |
| Cc1ccc(Oc2nc3ccccn3c(=O)c2/C=C(\C#N)C(=O)Nc2c(C)n(C)n(-c3ccccc3)c2=O)cc1 |  | inconclusive: 31.6 µM [activator, single point] |
| CCNC(=S)N/N=C/c1cn(Cc2ccccc2F)c2ccccc12 |  | inconclusive: 39.8 µM [inhibitor, single point] |
| S=c1[nH]nc(-c2ccccc2)n1/N=C/c1ccc(-c2ccccc2Cl)o1 |  | inconclusive: 39.8 µM [inhibitor, single point] |
| O=C1CSC(c2ccccc2)N1c1nc(-c2ccc(Cl)cc2Cl)cs1 (configuration not stated) |  | inconclusive: 31.6 µM [inhibitor, single point] |
| CCOC(=O)CCCCC(=O)c1[nH]c(=O)[nH]c1CSc1nc(-c2ccccc2)c(C#N)c(=O)[nH]1 |  | inconclusive: 25.1 µM [activator, partial curve] |
| OCCCc1nc2n(n1)C(c1cccs1)C=C(c1ccc(Br)cc1)N2 (configuration not stated) |  | inconclusive: 39.8 µM [activator, single point] |
| O=C(Cc1nnc(NC(=O)Nc2ccccc2)s1)NCc1ccccc1 | inactive: -75.2% |  |
| Cc1ccc(C2/C(=C(/O)c3ccc(OC(C)C)cc3)C(=O)C(=O)N2CCN2CCOCC2)cc1 (configuration not stated) |  | inconclusive: 39.8 µM [activator, single point] |
| CC(C)(C)C(=O)CSc1nc2c(c(-c3cccs3)c1C#N)CCC2 |  | active: 25.1 µM |
| CCN(CC)c1ccc(NC(=O)c2ccccc2Br)cc1S(=O)(=O)Nc1ccccc1OC |  | inconclusive: 39.8 µM [inhibitor, single point] |
| CC(=O)c1c(C)oc2ccc(N(C(=O)Oc3ccccc3)S(=O)(=O)c3ccc(C(C)(C)C)cc3)cc12 | inactive: -13.3% |  |
